Results taken from PubChem BioAssay (NCATS).
The shares of active, inactive and inconclusive entries below differ from those in the screen. For some of these results: No potency is given beside an inconclusive call; the fits are too rough. For some of these results: A note “side channel” means that the fit belongs to a control or component signal, not to the main read-out. Active and inactive are the calls of the source. Unless noted, the call rests on the fitted dose curve; in most records, active means well fitted curve in the direction sought with a large enough effect; inconclusive means small, poorly fitted or top-dose-only effect, or another doubt; inactive means no such curve, though single readings can be large; an effect the other way counts as inactive or inconclusive.

What was measured:
[1] = Cell Viability - Hek293 (AID 427;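 active means compounds whose dose-response curve shows a full or clear partial loss of cell viability, called from curve shape rather than a numeric limit; inconclusive means weak partial curves or an effect only at the top dose; inactive means no dose-dependent loss of viability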;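 further: potency means the concentration at half of the fitted maximal effect; cells exposed to compound for 40 hours at 37 °C before reading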); conditions: qHTS
Summary of the method: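 AC50 values derive from Hill-modelled concentration-response of ATP-based luminescence, normalized between DMSO-only and 100 uM tamoxifen controls. Cells were exposed in complete culture medium for 40 hr at 37 °C before detection.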

[2] = MultiTox-Fluor Cytotoxicity Assay - LYMP1-001 - Live Cells (AID 947); conditions: LYMP1-001 lymphoblastoid cells, live-cell protease fluorescence viability; series mostly up to 92.2 µM; further: potency means the concentration at half of the fitted maximal effect
[3] = molecular target: Glucocorticoid receptor (Homo sapiens) (UniProt P04150); test: qHTS assay for small molecule antagonists of glucocorticoid receptor signaling (AID 588533; active means well fitted inhibition curve with a large enough effect in the signal ratio, with a control signal flat, not every such curve was filed as active; inconclusive means small, poorly fitted or top-dose-only effect, or effect the other way, or a change in a side signal; the % refers to the signal ratio;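 further: cells stimulated with 2 nM dexamethasone as agonist; on the % scale 0 is the no-effect control and ±100 the full control effect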); conditions: HeLa MMTV-bla, GRE beta-lactamase ratio, antagonist mode, 18 h; activity change, negative = inhibition: at 76.8 µM (top of the series)
[4] = molecular target: Peroxisome proliferator-activated receptor gamma (Homo sapiens) (UniProt P37231); test: qHTS assay for small molecule antagonists of peroxisome proliferator-activated receptor gamma signaling (AID 588537; active means well fitted inhibition curve with a large enough effect in the signal ratio, with a control signal flat, not every such curve was filed as active; inconclusive means small, poorly fitted or top-dose-only effect, or effect the other way, or a change in a side signal; the % refers to the signal ratio;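 further: reporter cells co-stimulated with 50 nM rosiglitazone agonist during compound treatment; % of control where 0% means no effect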); conditions: HEK293 PPARg-UAS-bla, beta-lactamase ratio, antagonist mode; activity, negative = inhibition: at 76.8 µM (top of the series)
Summary of the method: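 We seeded GeneBLAzer HEK293 reporter cells at 3000 per well, allowed 6-6.5 h attachment at 37 C, then co-treated with test compound titrations and 50 nM rosiglitazone overnight (16 h). Inhibition was quantified from 460/530 nm emission ratios.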

[5] = molecular target: Vitamin D3 receptor (Homo sapiens) (UniProt P11473); test: qHTS assay for small molecule antagonists of vitamin D receptor signaling (AID 588541; calls by dose curve;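 further: receptor activated by calcitriol during compound treatment; on the % scale 0 is the no-effect control and ±100 the full control effect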); conditions: HEK293T VDR-UAS-bla, beta-lactamase ratio, antagonist mode; activity change, negative = inhibition: at 76.7 µM (top of the series)
[6] = qHTS assay for small molecule agonists of the antioxidant response element (ARE) signaling pathway (AID 651741; active means well fitted activation curve with a large enough effect in the signal ratio; inconclusive means small, poorly fitted or top-dose-only effect, or effect the other way, or a change in a side signal; the % refers to the signal ratio; further: potency means the concentration at half of the fitted maximal effect; on activation: % of control where 0% means no effect); conditions: HepG2 ARE-bla reporter, beta-lactamase FRET ratio, 16 h; activation: at 96 µM (top of the series) unless noted
Summary of the method: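 Compounds in DMSO are pinned onto HepG2 ARE-bla cells (2,000/well) that were preincubated 5 h; plates stay 16 h at 37 C, then beta-lactamase activity is detected with LiveBLAzer B/G substrate by fluorescence.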

[7] = molecular target: Tumor necrosis factor (Homo sapiens) (UniProt P01375); test: qHTS assay to identify small molecules that stimulate Tumor Necrosis Factor-alpha (TNF-alpha) secretion (AID 651757; active means well fitted curve in the direction sought with a large enough effect in the signal ratio; inconclusive means small, poorly fitted or top-dose-only effect, or a change in a side signal; inactive means no such curve, though single readings can be large or run the other way; the % refers to the signal ratio; further: 0% is about no effect); conditions: Human cells, HTRF 665/615 ratio; activation (TNF-alpha secretion): at 92.2 µM (top of the series)
Summary of the method: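 THP-1 cells (3000/well) exposed to compounds 17 hrs at 37 C. Secreted TNF-alpha detected by HTRF with cryptate- and XL665-labeled anti-TNF-alpha antibodies after 3 hr at room temperature.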

[8] = qHTS assay to identify small molecules that stimulate interleukin-8 (IL-8) secretion (AID 651758; active means well fitted activation curve with a large enough effect in the signal ratio; inconclusive means small, poorly fitted or top-dose-only effect, or effect the other way, or a change in a side signal; the % refers to the signal ratio; further: 0% is about no effect); conditions: HTRF ratio (665/615); activation: at 92.2 µM (top of the series)
Summary of the method: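 THP-1, 2000 cells/well; cpd 16 h, 37 C; add cryptate + XL665 anti-IL-8 Abs; RT 1-3 h; TR-FRET read.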

[9] = Cell Viability - Jurkat (AID 426;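 active means dose-dependent loss of cell ATP signal giving a full or clear fitted curve, ranked by lower potency value; inconclusive means weak partial curve or response only at the top dose; inactive means no loss of viability signal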;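 further: potency means the concentration at half of the fitted maximal effect; cells exposed to compound for 40 hours at 37 °C before ATP read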); conditions: qHTS
Summary of the method: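 Jurkat (Clone E6-1) cells, 5000/well in complete medium, exposed to compounds for 40 hr at 37C; intracellular ATP measured by CellTiter-Glo luminescence after 20 min at room temperature. AC50 from Hill fits.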

[10] = MultiTox-Fluor Cytotoxicity Assay - LYMP1-003 - Dead Cells (AID 961); conditions: LYMP1-003 lymphoblastoid cells, dead-cell protease fluorescence; series mostly up to 92.2 µM; further: potency means the concentration at half of the fitted maximal effect; nearly all actives have a fitted effect of over 70% in size
Summary of the method: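 Acute toxicity is scored as increased dead-cell protease activity in human lymphoblastoid LYMP1-003 cells after 16 h compound exposure in complete culture medium. Activity is normalized to DMSO basal and 15 uM tetraoctylammonium bromide as full response.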

[11] = Cell Viability - LYMP2-013 (AID 970); conditions: LYMP2-013 lymphoblastoid cells viability; activity change, negative = cytotoxic: at 92.2 µM (top of the series);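 further: potency means the concentration at half of the fitted maximal effect; cells exposed to compound for 24 h at 37 °C; nearly all actives have a fitted effect of over 55% in size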
Summary of the method: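 Human lymphoblastoid LYMP2-013 cells, 2500/well, treated 24 h at 37 C in complete medium; viability as intracellular ATP by CellTiter-Glo luminescence after 30 min. AC50 from Hill fits of qHTS concentration-response.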

[12] = Cell Viability - LYMP2-010 (AID 981); conditions: LYMP2-010 lymphoblastoid cell viability, qHTS; series mostly up to 92.2 µM;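 further: potency means the concentration at half of the fitted maximal effect; cells exposed to compound for 24 hours at 37 °C; nearly all actives have a fitted effect of over 55% in size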
Summary of the method: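 Human lymphoblastoid LYMP2-010 cells (2500/well) treated 24 h at 37 C in complete medium; viability read as intracellular ATP by CellTiter-Glo luminescence. AC50 from Hill fits of concentration-response data; tetraoctylammonium bromide positive control.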

[13] = Cell Viability - LYMP2-024 (AID 988); conditions: LYMP2-024 lymphoblastoid cell viability; activity change, negative = cytotoxicity: at 92.2 µM (top of the series); further: potency means the concentration at half of the fitted maximal effect; nearly all actives have a fitted effect of over 60% in size
Summary of the method: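 Human lymphoblastoid LYMP2-024 cells (2500/well) rested 5 hr, then treated with compound for 24 hr at 37 C in complete medium. Viability was measured as intracellular ATP by CellTiter-Glo luminescence. AC50 values came from Hill-equation fits.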

[14] = molecular target: Peroxisome proliferator-activated receptor gamma (Homo sapiens) (UniProt P37231); test: qHTS assay for small molecule agonists of peroxisome proliferator-activated receptor gamma signaling (AID 588536; active means well fitted curve in the direction sought with a large enough effect in the signal ratio, with a control signal flat, not every such curve was filed as active; inconclusive means small, poorly fitted or top-dose-only effect, or effect the other way, or a change in a side signal; inactive means no such curve, though single readings can be large or run the other way; the % refers to the signal ratio;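 further: 0% = DMSO basal wells and 100% = rosiglitazone at 2 µM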); conditions: HEK293 PPARg-UAS-bla, beta-lactamase ratio, 16 h; activation: at 76.7 µM (top of the series), percent of rosiglitazone response, DMSO as zero
Summary of the method: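 HEK293 UAS-bla reporter line, 1% charcoal/dextran FBS; titration, 16 h, 37 C; CCF4 loading 2 h RT; fluorescence 460/530 nm. Normalized to rosiglitazone 2 uM = 100%, DMSO = 0%.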

[15] = molecular target: Retinoic acid receptor RXR-alpha (Homo sapiens) (UniProt P19793); test: qHTS assay for small molecule antagonists of retinoid X receptor alpha signaling (AID 588546; active means well fitted inhibition curve with a large enough effect in the signal ratio, with a control signal flat, not every such curve was filed as active; inconclusive means small, poorly fitted or top-dose-only effect, or effect the other way, or a change in a side signal; inactive means no such curve, though single readings can be large or run the other way; the % refers to the signal ratio;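 further: cells stimulated with 9-cis-retinoic acid as agonist; on the % scale 0 is the no-effect control and ±100 the full control effect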); conditions: HEK293T RXRa-UAS-bla, beta-lactamase ratio, antagonist mode
Summary of the method: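 Beta-lactamase reporter inhibition, read as CCF4 fluorescence ratio (ex 405, em 460/530 nm) after 2 h at RT. HEK293T UAS-bla cells, 2500/well, were stimulated with 9-cis-RA at 500 or 100 nM final alongside test compound for 18 h at 37 C.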

[16] = molecular target: Thyroid hormone receptor beta (Homo sapiens) (UniProt P10828); test: qHTS assay for small molecule antagonists of thyroid hormone receptor beta signaling (AID 588547; active means well fitted inhibition curve with a large enough effect in the signal ratio, with a control signal flat, not every such curve was filed as active; inconclusive means small, poorly fitted or top-dose-only effect, or effect the other way, or a change in a side signal; the % refers to the signal ratio; further: potency means the concentration at half of the fitted maximal effect); conditions: TR-UAS-bla HEK293, beta-lactamase ratio, antagonist mode, 18 h
Summary of the method: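 TR-UAS-bla GripTite HEK293 cells in 2% charcoal/dextran FBS medium were preincubated 4 h at 37 C, given compound (0.59 nM to 92 uM) plus 0.4 nM T3 (final) for 18 h, then CCF4 for 2 h at RT; Hill fit gave IC50.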

[17] = qHTS assay for small molecule disruptors of the mitochondrial membrane potential - 5 hr assay (AID 651755; calls by dose curve; further: on the % scale 0 is the no-effect control and ±100 the full control effect; nearly all actives have a fitted effect of over 40% in size); conditions: JC-1-type ratio dye; ratio change, negative = disruption: at 92.2 µM (top of the series)
Summary of the method: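 HepG2 cells, attached overnight at 37C, were exposed to compound or DMSO for 5 hr at 37C, 5% CO2. Mito-MPS dye was then added for 30 min, and fluorescence read at 490/535 nm (monomers) and 540/590 nm (aggregates).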

[18] = qHTS assay for small molecule antagonists of the retinoid-related orphan receptor gamma (ROR-gamma) signaling pathway - cell viability counter screen (AID 720652; active means well fitted curve in the direction sought with a large enough effect in the repeat runs; inconclusive means weak or mixed curves; inactive means no such curve, though single readings can be large; an effect the other way counts as inactive or inconclusive;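 further: potency means the concentration at half of the fitted maximal effect; compound exposure lasted 16 hr before ATP read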); conditions: RORgamma reporter cell line viability counter screen; series mostly up to 92.2 µM
Summary of the method: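 CHO cells carrying TET-inducible ROR and RORE-luciferase reporter, plated 5 hr, then dosed with compound plus doxycycline. After 16 hr at 37 C, viability read as intracellular ATP by CellTiter-Glo luminescence.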
Tags describe the fitted curve by direction and shape or compound fluorescence and quenching.

UniProt P37231, sequence (P37231 whole entry, looked up): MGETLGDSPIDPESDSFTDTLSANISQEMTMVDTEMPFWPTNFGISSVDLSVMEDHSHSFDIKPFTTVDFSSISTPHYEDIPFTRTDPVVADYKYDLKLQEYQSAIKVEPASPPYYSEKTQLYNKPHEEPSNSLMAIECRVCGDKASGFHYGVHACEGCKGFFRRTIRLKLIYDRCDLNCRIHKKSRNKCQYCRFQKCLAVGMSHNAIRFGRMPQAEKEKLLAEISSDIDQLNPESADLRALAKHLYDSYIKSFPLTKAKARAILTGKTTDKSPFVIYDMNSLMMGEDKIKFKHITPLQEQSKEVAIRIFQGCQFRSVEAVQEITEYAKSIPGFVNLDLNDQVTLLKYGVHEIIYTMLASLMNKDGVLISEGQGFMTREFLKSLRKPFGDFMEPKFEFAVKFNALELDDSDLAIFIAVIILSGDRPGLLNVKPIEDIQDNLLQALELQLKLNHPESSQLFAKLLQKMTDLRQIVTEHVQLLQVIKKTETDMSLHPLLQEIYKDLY
UniProt P10828, sequence (P10828 whole entry, looked up): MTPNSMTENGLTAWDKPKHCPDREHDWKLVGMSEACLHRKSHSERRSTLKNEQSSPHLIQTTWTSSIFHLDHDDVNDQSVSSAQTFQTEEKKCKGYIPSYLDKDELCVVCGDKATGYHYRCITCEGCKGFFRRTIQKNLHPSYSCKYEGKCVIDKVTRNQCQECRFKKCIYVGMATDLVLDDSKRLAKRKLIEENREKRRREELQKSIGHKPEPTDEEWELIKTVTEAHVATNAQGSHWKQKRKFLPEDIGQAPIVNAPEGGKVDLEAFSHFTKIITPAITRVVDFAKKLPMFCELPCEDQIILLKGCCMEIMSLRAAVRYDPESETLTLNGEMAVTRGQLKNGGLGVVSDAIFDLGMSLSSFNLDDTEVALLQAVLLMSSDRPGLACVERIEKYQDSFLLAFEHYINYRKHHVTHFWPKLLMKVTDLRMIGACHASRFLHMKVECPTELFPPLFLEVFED
UniProt P01375, sequence (P01375 whole entry, looked up): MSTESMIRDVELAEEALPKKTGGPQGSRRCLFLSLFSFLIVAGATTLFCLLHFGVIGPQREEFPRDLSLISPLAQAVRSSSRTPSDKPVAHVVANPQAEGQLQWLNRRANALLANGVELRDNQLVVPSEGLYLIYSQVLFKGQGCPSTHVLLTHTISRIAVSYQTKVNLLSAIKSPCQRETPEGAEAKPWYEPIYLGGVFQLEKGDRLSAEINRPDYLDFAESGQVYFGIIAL
UniProt P19793, sequence (P19793 whole entry, looked up): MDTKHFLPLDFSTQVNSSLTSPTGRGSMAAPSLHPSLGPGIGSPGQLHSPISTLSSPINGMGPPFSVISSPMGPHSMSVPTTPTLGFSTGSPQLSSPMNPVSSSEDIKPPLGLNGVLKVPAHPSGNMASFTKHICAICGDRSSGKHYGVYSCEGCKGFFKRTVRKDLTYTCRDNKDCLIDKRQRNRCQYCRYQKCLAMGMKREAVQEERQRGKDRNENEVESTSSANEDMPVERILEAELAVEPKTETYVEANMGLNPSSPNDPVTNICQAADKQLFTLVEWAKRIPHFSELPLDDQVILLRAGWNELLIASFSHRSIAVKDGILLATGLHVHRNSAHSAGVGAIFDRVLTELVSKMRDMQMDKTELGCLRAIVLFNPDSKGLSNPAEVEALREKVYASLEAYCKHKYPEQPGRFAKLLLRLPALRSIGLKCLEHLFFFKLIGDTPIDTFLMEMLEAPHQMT
UniProt P04150, sequence (P04150 whole entry, looked up): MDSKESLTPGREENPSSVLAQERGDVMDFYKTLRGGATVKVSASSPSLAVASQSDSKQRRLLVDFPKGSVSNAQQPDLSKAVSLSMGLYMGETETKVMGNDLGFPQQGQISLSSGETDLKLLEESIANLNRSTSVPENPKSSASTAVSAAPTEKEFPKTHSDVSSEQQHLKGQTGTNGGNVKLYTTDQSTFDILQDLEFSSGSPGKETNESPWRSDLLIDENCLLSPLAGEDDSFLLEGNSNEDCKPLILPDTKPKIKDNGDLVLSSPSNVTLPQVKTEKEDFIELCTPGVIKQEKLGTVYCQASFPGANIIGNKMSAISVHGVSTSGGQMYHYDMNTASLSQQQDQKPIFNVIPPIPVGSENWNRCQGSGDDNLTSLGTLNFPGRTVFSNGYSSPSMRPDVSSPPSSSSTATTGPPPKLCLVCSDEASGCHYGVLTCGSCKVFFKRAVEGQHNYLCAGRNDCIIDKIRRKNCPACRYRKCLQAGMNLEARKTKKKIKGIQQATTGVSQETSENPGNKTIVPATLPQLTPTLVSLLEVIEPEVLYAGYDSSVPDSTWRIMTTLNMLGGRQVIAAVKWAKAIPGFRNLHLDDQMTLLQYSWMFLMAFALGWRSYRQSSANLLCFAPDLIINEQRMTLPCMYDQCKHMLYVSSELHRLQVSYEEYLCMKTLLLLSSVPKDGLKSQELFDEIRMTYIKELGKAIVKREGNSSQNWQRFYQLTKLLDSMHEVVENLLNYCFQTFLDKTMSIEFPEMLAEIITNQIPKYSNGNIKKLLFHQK
UniProt P11473, sequence (P11473 whole entry, looked up): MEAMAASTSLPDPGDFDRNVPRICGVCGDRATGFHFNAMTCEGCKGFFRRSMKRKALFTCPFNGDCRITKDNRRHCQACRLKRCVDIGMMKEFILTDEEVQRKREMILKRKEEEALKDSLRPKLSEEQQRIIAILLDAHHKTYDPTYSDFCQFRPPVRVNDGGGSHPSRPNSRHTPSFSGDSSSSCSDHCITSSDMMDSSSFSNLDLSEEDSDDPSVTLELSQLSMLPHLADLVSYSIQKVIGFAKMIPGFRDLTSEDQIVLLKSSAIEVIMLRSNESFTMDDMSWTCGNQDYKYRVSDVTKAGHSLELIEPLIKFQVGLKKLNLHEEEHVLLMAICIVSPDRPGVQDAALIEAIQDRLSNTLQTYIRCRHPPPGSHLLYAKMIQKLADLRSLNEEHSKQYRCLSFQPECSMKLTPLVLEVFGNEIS

Row | SMILES | Potency [1] | Potency [2] | Potency [3] | Potency [4] | Potency [5] | activation [6] | Potency [7] | Potency [8] | Potency [9] | Potency [10] | Potency [11] | Potency [12] | Potency [13] | Potency [14] | max response [15] | Potency [16] | Potency [6] | Potency [17] | Potency [18]
1 | NC(=O)CCCCC(N)=O | inactive: > 92 µM | inconclusive [cytotoxic, full curve, poor fit] | inactive | inactive | inactive | inconclusive: 5.76% | inactive | inactive | – | – | – | – | – | – | – | – | – | – | –
2 | NC(=O)/N=N/C(N)=O | – | inconclusive [cytotoxic, full curve, poor fit] | – | inactive | – | – | – | inactive | inactive: > 92 µM | inconclusive [falling, partial curve] | inconclusive [cytotoxic, single point] | inconclusive [cytotoxic, partial curve, poor fit] | inconclusive [cytotoxic, partial curve, poor fit] | inactive | inactive: -2.12% | inconclusive [fluorescent, side channel, full curve, poor fit] | inconclusive [activator, partial curve, poor fit] | inactive | inconclusive [cytotoxic, single point]
